Consider 31 molecules from publication PMC9911399, “Two distinct binding modes provide the RNA-binding protein RbFox with extraordinary sequence specificity”.

Substitutions are numbered along the chain they refer to; changes in the protein carry UniProt numbers. Some of the results follow.

T1: RBFOX1 RRM (Homo sapiens, UniProt Q9NWB1 109-208)
T1 sequence: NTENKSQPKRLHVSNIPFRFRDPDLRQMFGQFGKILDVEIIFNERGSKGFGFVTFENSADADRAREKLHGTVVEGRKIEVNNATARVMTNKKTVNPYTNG

B1: CACUGUU (DNA:RNA)
RNA: GGGAGACCGGAAUUCAGAUUGUCCCACUGUUUUAAAUCCCGUCGUAGCCACCA
DNA 1: CAATCTGAATTCCGGTCTCCC
DNA 2: TGGTGGCTACGACGGGATT
B2: UCACGUA (DNA:RNA)
RNA: B1 RNA with C25U, A26C, C27A, U28C, U31A
DNA 1: CAATCTGAATTCCGGTCTCCC
DNA 2: TGGTGGCTACGACGGGATT
B3: ACAGCGU (DNA:RNA)
RNA: B1 RNA with C25A, A26C, C27A, U28G, G29C, U30G
DNA 1: CAATCTGAATTCCGGTCTCCC
DNA 2: TGGTGGCTACGACGGGATT
B4: CAUUUAU (DNA:RNA)
RNA: B1 RNA with C27U, G29U, U30A
DNA 1: CAATCTGAATTCCGGTCTCCC
DNA 2: TGGTGGCTACGACGGGATT
B5: AAAUGCG (DNA:RNA)
RNA: B1 RNA with C25A, C27A, U30C, U31G
DNA 1: CAATCTGAATTCCGGTCTCCC
DNA 2: TGGTGGCTACGACGGGATT
B6: CUGGGGU (DNA:RNA)
RNA: B1 RNA with A26U, C27G, U28G, U30G
DNA 1: CAATCTGAATTCCGGTCTCCC
DNA 2: TGGTGGCTACGACGGGATT
B7: UAGAGCU (DNA:RNA)
RNA: B1 RNA with C25U, C27G, U28A, U30C
DNA 1: CAATCTGAATTCCGGTCTCCC
DNA 2: TGGTGGCTACGACGGGATT
B8: UCAGUCG (DNA:RNA)
RNA: GGGAGACCGGAAUUCAGAUUGUCCUCAGUCGUUAAAUCCCGUCGUAGCCACCA
DNA 1: CAATCTGAATTCCGGTCTCCC
DNA 2: TGGTGGCTACGACGGGATT
B9: CAACUGU (DNA:RNA)
RNA: B1 RNA with C27A, U28C, G29U, U30G
DNA 1: CAATCTGAATTCCGGTCTCCC
DNA 2: TGGTGGCTACGACGGGATT
B10: AUCUAUG (DNA:RNA)
RNA: B1 RNA with C25A, A26U, G29A, U31G
DNA 1: CAATCTGAATTCCGGTCTCCC
DNA 2: TGGTGGCTACGACGGGATT
B11: AAACGAU (DNA:RNA)
RNA: B1 RNA with C25A, C27A, U28C, U30A
DNA 1: CAATCTGAATTCCGGTCTCCC
DNA 2: TGGTGGCTACGACGGGATT
B12: CUAACGU (DNA:RNA)
RNA: B1 RNA with A26U, C27A, U28A, G29C, U30G
DNA 1: CAATCTGAATTCCGGTCTCCC
DNA 2: TGGTGGCTACGACGGGATT
B13: UAAACCA (DNA:RNA)
RNA: B8 RNA with C26A, G28A, U29C, G31A
DNA 1: CAATCTGAATTCCGGTCTCCC
DNA 2: TGGTGGCTACGACGGGATT
B14: UCAAAGC (DNA:RNA)
RNA: B8 RNA with G28A, U29A, C30G, G31C
DNA 1: CAATCTGAATTCCGGTCTCCC
DNA 2: TGGTGGCTACGACGGGATT
B15: UAUCUUG (DNA:RNA)
RNA: B8 RNA with C26A, A27U, G28C, C30U
DNA 1: CAATCTGAATTCCGGTCTCCC
DNA 2: TGGTGGCTACGACGGGATT
B16: UACGGGU (DNA:RNA)
RNA: B1 RNA with C25U, U28G, U30G
DNA 1: CAATCTGAATTCCGGTCTCCC
DNA 2: TGGTGGCTACGACGGGATT
B17: CAGGACA (DNA:RNA)
RNA: B1 RNA with C27G, U28G, G29A, U30C, U31A
DNA 1: CAATCTGAATTCCGGTCTCCC
DNA 2: TGGTGGCTACGACGGGATT
B18: CGGAAGG (DNA:RNA)
RNA: B1 RNA with A26G, C27G, U28A, G29A, U30G, U31G
DNA 1: CAATCTGAATTCCGGTCTCCC
DNA 2: TGGTGGCTACGACGGGATT
B19: UGCGCUU (DNA:RNA)
RNA: B1 RNA with C25U, A26G, U28G, G29C
DNA 1: CAATCTGAATTCCGGTCTCCC
DNA 2: TGGTGGCTACGACGGGATT
B20: UGUCUUG (DNA:RNA)
RNA: B8 RNA with C26G, A27U, G28C, C30U
DNA 1: CAATCTGAATTCCGGTCTCCC
DNA 2: TGGTGGCTACGACGGGATT
B21: AAGCCGA (DNA:RNA)
RNA: B1 RNA with C25A, C27G, U28C, G29C, U30G, U31A
DNA 1: CAATCTGAATTCCGGTCTCCC
DNA 2: TGGTGGCTACGACGGGATT
B22: CAACUUG (DNA:RNA)
RNA: B1 RNA with C27A, U28C, G29U, U31G
DNA 1: CAATCTGAATTCCGGTCTCCC
DNA 2: TGGTGGCTACGACGGGATT
B23: GGUCAAG (DNA:RNA)
RNA: B8 RNA with U25G, C26G, A27U, G28C, U29A, C30A
DNA 1: CAATCTGAATTCCGGTCTCCC
DNA 2: TGGTGGCTACGACGGGATT
B24: AGCAUGC (DNA:RNA)
RNA: B1 RNA with C25A, A26G, U28A, G29U, U30G, U31C
DNA 1: CAATCTGAATTCCGGTCTCCC
DNA 2: TGGTGGCTACGACGGGATT
B25: CCUAGAG (DNA:RNA)
RNA: B1 RNA with A26C, C27U, U28A, U30A, U31G
DNA 1: CAATCTGAATTCCGGTCTCCC
DNA 2: TGGTGGCTACGACGGGATT
B26: GUAGAUC (DNA:RNA)
RNA: B8 RNA with U25G, C26U, U29A, C30U, G31C
DNA 1: CAATCTGAATTCCGGTCTCCC
DNA 2: TGGTGGCTACGACGGGATT
B27: AGUUAUG (DNA:RNA)
RNA: B1 RNA with C25A, A26G, C27U, G29A, U31G
DNA 1: CAATCTGAATTCCGGTCTCCC
DNA 2: TGGTGGCTACGACGGGATT
B28: GACGCUA (DNA:RNA)
RNA: B1 RNA with C25G, U28G, G29C, U31A
DNA 1: CAATCTGAATTCCGGTCTCCC
DNA 2: TGGTGGCTACGACGGGATT
B29: AUGUGUU (DNA:RNA)
RNA: B1 RNA with C25A, A26U, C27G
DNA 1: CAATCTGAATTCCGGTCTCCC
DNA 2: TGGTGGCTACGACGGGATT
B30: CUUUGUA (DNA:RNA)
RNA: B1 RNA with A26U, C27U, U31A
DNA 1: CAATCTGAATTCCGGTCTCCC
DNA 2: TGGTGGCTACGACGGGATT
B31: AAACUGC (DNA:RNA)
RNA: B8 RNA with U25A, C26A, G28C, C30G, G31C
DNA 1: CAATCTGAATTCCGGTCTCCC
DNA 2: TGGTGGCTACGACGGGATT

The experiment addresses T1, RBFOX1 RRM. Put plainly: EMSA; HiTS-Eq, 1 nM pool, 10 min; buffer printed only for the single-RNA assays: 10 mM Tris pH 7.5, 150 mM NaCl, 3.4 mM EDTA, 0.001% NP-40, 30 C. As to conditions: tags: His6 N-terminal (pET28a); label: 5' 32P. In outline: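 A pool of RNA with 7 randomized nucleotides, 5′-radiolabelled and with DNA-annealed flanks, was equilibrated at 1 nM for 10 min in 50 µL with purified RbFox RRM, wild type or mutant, across increasing protein concentrations. Free RNA was separated by 8% native PAGE, excised, reverse-transcribed, barcoded by PCR and sequenced. Relative association constants were obtained from read-count changes of each RNA species versus the control reaction and normalised to the cognate motif.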
In general terms: In EMSA bound probe runs differently from free probe, usually more slowly.
For B1, the binding signal was 0.00521 KA relative to UGCAUGU. Then B2, with 0.00715 KA relative to UGCAUGU; and B3, with 0.00382 KA relative to UGCAUGU. B4: the binding signal was 0.00234 KA relative to UGCAUGU. Then B5, with 0.00906 KA relative to UGCAUGU. Then B6, with 0.018 KA relative to UGCAUGU. Then B7, with 0.0123 KA relative to UGCAUGU. Consider B8, for which the binding signal was 0.00991 KA relative to UGCAUGU. To B9 belongs 0.00466 KA relative to UGCAUGU.

As to B10, the binding signal was 0.00462 KA relative to UGCAUGU. To B11 belongs 0.00249 KA relative to UGCAUGU.

For B12, the binding signal is 0.00747 KA relative to UGCAUGU. To B13 belongs 0.0013 KA relative to UGCAUGU; to B14, 0.00363 KA relative to UGCAUGU. To B15 belongs 0.0139 KA relative to UGCAUGU; to B16, 0.00441 KA relative to UGCAUGU; to B17, 0.00328 KA relative to UGCAUGU.

B18: the binding signal is 0.00994 KA relative to UGCAUGU. To B19 belongs 0.0163 KA relative to UGCAUGU; to B20, 0.0447 KA relative to UGCAUGU; to B21, 0.00329 KA relative to UGCAUGU. In the case of B22, the binding signal is 0.00743 KA relative to UGCAUGU. To B23 belongs 0.00421 KA relative to UGCAUGU; to B24, 0.888 KA relative to UGCAUGU. With B25, the binding signal was 0.00564 KA relative to UGCAUGU. To B26 belongs 0.012 KA relative to UGCAUGU; to B27, 0.0145 KA relative to UGCAUGU; to B28, 0.0104 KA relative to UGCAUGU. Then B29, with 0.0112 KA relative to UGCAUGU. As to B30, the binding signal was 0.00681 KA relative to UGCAUGU.

Consider B31, for which the binding signal was 0.00534 KA relative to UGCAUGU.
